Test results taken from PubChem BioAssay AID1508623 (National Center for Advancing Translational Sciences (NCATS), 2021).
The campaign covered roughly 48,000 compounds. About 450 (0.94%) were called active. Inconclusive results (about 19%) are left out. The call rests on the fitted dose curve; in most records, active means well fitted inhibition curve with a large enough effect; inconclusive means small, poorly fitted or top-dose-only effect; inactive means no such curve, though single readings can be large or run the other way. Some of the results follow.

assay: Primary qHTS for Identification of Small Molecule Inhibitors of Huntingtin Promoter Activity; details: HEK293 HTT promoter firefly luciferase reporter (activity 0% = vehicle and -100% = no light), 24 h; series mostly up to 57.5 µM; activity change, negative = inhibition: at the top concentration; further: nearly all actives have a fitted effect of over 50% in size
Procedure, shortened: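 Luminescence was read after Dual-Glo reagent and a 10 min room-temperature incubation. Values were normalized to vehicle (0% activity) and zero RLU (-100% activity). Reporter HEK293 cells had been exposed to compounds (up to 57.5 uM final) for 24 h.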

Activity change, negative = inhibition, inactive:
COc1ccc(-n2c(SCC(=O)NCc3ccc(Cl)cc3)nc3ccsc3c2=O)cc1 -19.8%, COc1nccnc1NS(=O)(=O)c1ccc(N)cc1 3.91%, Cc1ccc(NC(=O)CCCc2nc(-c3ccco3)no2)cc1Cl 0.971%, COc1ccc(-n2nnnc2C2CCN(S(=O)(=O)c3cccc(C(F)(F)F)c3)CC2)cc1 -11.2%, COc1cccc(NC(=O)C(Cc2ccccc2)N2Cc3ccccc3C2=O)c1 (stereo not given) -9.5%, CC(C)CCOc1ccc(C(=O)NCC2OCCc3ccccc32)cc1 (stereo not given) -2.64%, COc1cccc(-n2c(=O)c3cc(OC)c(OC)cc3n(CC(=O)Nc3ccc(F)cc3)c2=O)c1 -12.1%, COc1cc(NC(=O)c2cccc(Cl)c2Cl)ccc1NC(=O)c1cc2ccccc2o1 -27.9%, CCS(=O)(=O)N1CCCc2cc(C(=O)Nc3cccc(C(C)=O)c3)ccc21 -19.5%, CCCn1c2ccc(F)cc2c2nnc(SCCN3CCCCC3)nc21 -15.9%, CCC(=O)N1CCc2cc(Br)cc(S(=O)(=O)CCC(=O)Nc3cccc(Cl)c3)c21 -15.2%, CCCc1cnc2c(c1SCC(=O)Nc1ccccc1OCC)c(=O)n(C)c(=O)n2C -16.8%, Clc1ccc(-c2nnn3c2nc(NC2CCCCC2)c2ccccc23)cc1 -15.8%, CCOc1ccc(Nc2ncnc3c2c(-c2ccccc2)cn3-c2cccc(C)c2)cc1 -6.03%, CCOc1ccc(C(=O)N(Cc2ccc(C(C)C)cc2)Cc2ccco2)cc1 -21%, Cc1cc2c(cc1NS(=O)(=O)c1ccc(Br)cc1)n(C)c(=O)c(=O)n2C -21.9%, CCCSCCCNC(=O)c1ccc(C)c(NC(=O)c2nsc3ccccc23)c1 -13.6%, Cc1cccc(C)c1NC(=O)CN1CCCC1 0.76%, COc1cccc(Cn2nc(SC)c(S(=O)(=O)c3ccccc3)c2N(C(C)=O)C(C)=O)c1 -28.3%, COc1cc2c(cc1OC)C(c1cccc(Cl)c1)CC(=O)N2 (stereo not given) -22.9%, N#CCC(=O)NN -1.29%, CCc1ccc(OCCSc2nc3ccccc3n2CC(=O)N2CCCCC2)cc1 -37.7%, COc1ccc(Cl)cc1NC(=O)N1CCN(S(=O)(=O)c2ccc3c(ccn3C)c2)CC1 -26.6%, Cc1ccc(OCCSc2nc(-c3ccccc3C)nc3cc(=O)[nH]n23)cc1Cl -4.46%, COc1ccccc1N1CCN(c2ncnc3c2c(-c2ccccc2)cn3-c2cccc(Cl)c2)CC1 -26.1%, Cc1nn(-c2nc(-c3ccccc3)cc(C(F)(F)F)n2)c(C)c1Cl -20.4%, COc1ccc(S(=O)(=O)N2CCC(Oc3ccc(-n4cnnn4)cc3)CC2)cc1 -31.2%, COc1cccc(OC)c1C(=O)NCCc1sc(-c2cccc(F)c2)nc1C -28.4%, CCCCNC(=O)c1cccc(NC(=O)c2nsc3ccccc23)c1 22.4%, CC(N)CCCC(C)(C)O (stereo not given) 1.48%, CCOc1ccc2c(c1)c(=O)c(C(=O)c1ccc3c(c1)OCO3)cn2Cc1ccc(F)cc1 -12.7%, COc1cccc(CNC(=O)c2cnc3c(-c4ccc(F)cc4)c(C)nn3c2C)c1 -5.56%, CCc1ccc(C2C(C(=O)Nc3ccccc3OC)=C(C)Nc3c(C(=O)Nc4ccc(C)cc4)cnn32)cc1 (stereo not given) -11.9%, CCN(C(=O)c1cn(-c2cccc(OC)c2)c(=O)c2ccccc12)c1ccccc1C -13.8%, Cc1ccc(C)c(NC(=O)CSc2nccn2-c2cccc(C)c2C)c1 -25.9%, COc1ccc(C(=O)Nc2ccccc2-c2nc3ccccc3s2)cc1OC -15.7%, COc1ccc(CCCc2nnc(SCC(=O)Nc3cccc(F)c3C)o2)cc1 -15.9%, CCOCCc1nn2c(=O)cc(COC(=O)c3ccccc3OC)nc2s1 -1.9%, COCCCn1c(SCc2cccc(Cl)c2)nc2c(sc3ccccc32)c1=O -6.57%, Cc1cc(=O)n2nc(N(C)CC(=O)NCc3ccccc3C)sc2n1 -11.4%, CCCC(=O)Nc1cccc(OCc2cc(=O)n3cccc(C)c3n2)c1 8.32%, CCc1ccccc1Nc1nn2c(=O)c3ccc(C(=O)NCCC4=CCCCC4)cc3nc2s1 -18.1%, O=C(NCCc1ccccc1)c1cc(Nc2ccccc2)nc2ccccc12 -14.3%, CCOCCc1nnc(NC(=O)C(=O)c2cc(C)n(-c3ccc(C)cc3C)c2C)s1 -33.3%, COc1ccc2c(c1)c1c(c(=O)n(Cc3ccccc3)c(=O)n1CC(=O)Nc1ccccc1OC)n2C -18.6%, CCn1c(C)c(C)c2cc(C(=O)NCC(C)c3ccccc3)ccc21 (stereo not given) -3.03%, COc1ccc(N(CC(=O)Nc2cccc(Cl)c2)S(=O)(=O)c2c(C)[nH]c(=O)[nH]c2=O)cc1 -14.8%, CCOc1ccc(Nc2nc(-c3cccc(Cl)c3)c3c(n2)-c2ccccc2OC3)cc1 -9.39%, O=C(c1ccc2c(Cl)c3c(nc2c1)CCCC3)N1CCN(c2ccc(Cl)cc2)CC1 -2.97%, CCOc1ccc(-n2c(=O)c3c4c(sc3n(CC(=O)NC(C)CC)c2=O)CCCCC4)cc1 (stereo not given) -2.84%, Cc1ccc(CNC(=O)CSc2nc3c(sc4ccccc43)c(=O)n2CCCC(=O)NCCO)cc1 10.4%, O=C(Nc1ccc(F)cc1)Nc1csc2c1CCCC2 -3.61%, C[C@@H](O[C@H]1OCCN(Cc2n[nH]c(=O)[nH]2)[C@H]1c1ccc(F)cc1)c1cc(C(F)(F)F)cc(C(F)(F)F)c1 -26.5%, Oc1cccc(O)c1 9.32%, C[C@@H]1CCC[C@H](C)N1 0.52%, Cc1c(CCNC(=O)c2c(F)cccc2F)sc2nc(-c3ccc(F)cc3)nn12 23.9%, CCOc1ccc(CCn2c3c(c(=O)[nH]c2=O)C(NC(=O)c2cccc(F)c2)(C(F)(F)F)C(=O)N3)cc1OCC (stereo not given) -8.34%, O=C(Cc1ccc(-c2ccccc2)cc1)NCCS(=O)(=O)N1CCN(c2ccc(F)cc2)CC1 -29.8%, Cc1cc(O)cc(C)c1Cl -2.58%, CC(=O)N(c1onc(C)c1C)S(=O)(=O)c1ccc(N)cc1 2.36%, COc1cc(-c2nc3sccn3c2Nc2c(C)cccc2C)ccc1O -2.36%, O=C1Cc2cc(S(=O)(=O)N3CCN(c4cccc(Cl)c4)CC3)ccc2N1 -6.79%, CC(=O)N1CCCc2ccc(NS(=O)(=O)c3cccc(Cl)c3)cc21 -10.7%, CC(=O)N1CCCC1c1nc2ccccc2n1Cc1ccccc1Cl (stereo not given) -9.52%, Cc1cccc(OCc2nc(CC(=O)Nc3ccc(Cl)cc3)cs2)c1 -21.8%, Cc1cc(Nc2ccc(Br)cc2)nc(C)n1 33.2%, Cc1cccc(C)c1-n1ncc(C(=O)NCCCN2CCC(C)CC2)c1C1CCN(C(=O)OC(C)(C)C)CC1 -18.9%, CCOC(=O)c1cnc2c(ccc3ccccc32)c1Nc1ccc(C(C)=O)cc1 -28.6%, COc1cccc(CSc2nc3ccncc3n2CC(=O)Nc2ccc(OC)c(OC)c2OC)c1 -2.51%, CCCCN(CCCC)CC(O)c1cc(Cl)cc2c1-c1ccc(Cl)cc1/C2=C/c1ccc(Cl)cc1 (stereo not given) -6.25%, COc1ccccc1CNC(=O)Cc1csc2nc(-c3ccc(F)cc3)cn12 -17.7%, CCc1cc2c(cc3c(=O)n(CC(=O)NC(C)c4ccccc4)ncn32)s1 (stereo not given) 10.2%, COc1cccc(NC(=O)CCN2C(=O)c3ccccc3Sc3ncccc32)c1 -5.09%, Cc1cc(C)nc(-n2nc(C)c3c2N(Cc2ccccc2F)C(=O)CC3c2ccc(Cl)cc2)n1 (stereo not given) -11.8%, CCc1ccccc1NC(=O)C1CCN(S(=O)(=O)c2cn(C)cn2)CC1 -12.4%, CCOC(=O)c1sc2ccccc2c1S(=O)(=O)NCc1ccccc1OC 0%, Cc1cccc(C(=O)Nc2cc3c(cc2C)n(C)c(=O)n3C)c1 6.51%, CCC(=O)N1CCc2cc(Br)cc(S(=O)(=O)NCCc3cccc(C)c3)c21 -23.3%, O=C(Nc1sc2c(c1C(=O)NCc1ccco1)CCCC2)c1cc(=O)c2cc(Cl)ccc2o1 2.95%, Cc1nnc(N2CCN(C(=O)NCCC(C)C)CC2)c2nn(-c3ccc(Cl)cc3)c(C)c12 -17.2%, Cc1cc(C)c2nc(C)cc(Nc3cccc(C(=O)O)c3)c2c1 -18.6% [at 11.5 µM], CCOc1cc(C(=O)Nc2cc3c(cc2N2CCCC2)n(C)c(=O)c(=O)n3C)cc(OCC)c1OCC 2.74%, CC(=O)N1CCC(N(Cc2ccc(C)o2)C(=O)Nc2cccc(C(F)(F)F)c2)CC1 -20.8%, Cc1ccc2c(c1)-c1nc(-c3ccc4c(c3)NC(=O)CO4)cc(-c3ccccc3)c1CO2 -6.97%, O=C(CCCCn1c(=O)c2ccccc2n(Cc2cccc(F)c2)c1=O)NCCc1ccccc1 -14.6%, COc1ccccc1NC(=O)Cn1c(C)cc(C)c(C#N)c1=O 2.26%, Cc1ccc(C)c(NC(=O)CN2C(=O)CCc3cc(S(=O)(=O)N4CCCCC4)ccc32)c1 -19.3%, CC(=O)N1CCc2c(sc3c2c(=O)n(-c2ccccc2)c(=O)n3CC(=O)c2ccccc2)C1 -2.77%, CC(=O)N1CCc2cc(S(=O)(=O)NC(Cc3ccccc3)C(=O)NCc3ccccc3)ccc21 (stereo not given) -17.6%, COCc1nc2ccccc2n1Cc1ccc(C(C)(C)C)cc1 1.31%, Cc1ccc(Cn2c(=O)n(Cc3ccccc3)c(=O)c3oc4ccccc4c32)cc1 -17.5%, COc1ccc2[nH]c3c(c2c1)CCN(C(=O)CCC1CCCC1)C3c1ccc(F)cc1 (stereo not given) -25.1%, O=C(CC1N=C2c3ccccc3N=C(SCc3ccc(F)cc3)N2C1=O)NCCc1ccccc1 (stereo not given) -6.61%, Cc1cccc(Cn2c(-c3ccccc3)nc3ccccc32)c1 1.89%, O=C(CSc1nccn1-c1ccc(F)cc1)Nc1nc2ccccc2s1 -10.7%, Cc1ccc(-c2cnc(C3CC3)o2)cc1S(=O)(=O)Nc1cccc(C)c1C -3.05%, CC(C)(C)OC(=O)N1CCC(c2c(C(=O)N3CCN(c4ccccn4)CC3)cnn2-c2ccc(F)cc2F)CC1 -2.18%, COc1ccc(NC(=O)C2CCCN(S(=O)(=O)c3c(C)[nH]c(=O)[nH]c3=O)C2)cc1OC (stereo not given) -16%, CCN1CCN(c2csc3ccc(Br)cc3c2=O)CC1 13.7%, CCn1c(=O)c2cc(C(=O)NCc3cc(OC)ccc3OC)sc2c2ccccc21 -22.2%
